In paper PMC6919601, “Identification of Plasmodium dipeptidyl aminopeptidase allosteric inhibitors by high throughput screening” (PLoS ONE, 2019):
In all, about 110,000 compounds went through this assay and about 230 (0.21%) showed an effect of 50% or more. Some of the results follow.

Target: DPAP1 (Plasmodium falciparum, UniProt Q8IIJ9)
Assay: primary screen, percent inhibition; read by cleavage of a fluorogenic dipeptide substrate; higher = more effect of the substance
Set-up: species or system P. falciparum D10 trophozoite lysates; single well
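Note: 30 min substrate incubation versus DMSO and 10 µM JCP410 controls.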

Sequence of DPAP1 (Q8IIJ9 whole entry, looked up): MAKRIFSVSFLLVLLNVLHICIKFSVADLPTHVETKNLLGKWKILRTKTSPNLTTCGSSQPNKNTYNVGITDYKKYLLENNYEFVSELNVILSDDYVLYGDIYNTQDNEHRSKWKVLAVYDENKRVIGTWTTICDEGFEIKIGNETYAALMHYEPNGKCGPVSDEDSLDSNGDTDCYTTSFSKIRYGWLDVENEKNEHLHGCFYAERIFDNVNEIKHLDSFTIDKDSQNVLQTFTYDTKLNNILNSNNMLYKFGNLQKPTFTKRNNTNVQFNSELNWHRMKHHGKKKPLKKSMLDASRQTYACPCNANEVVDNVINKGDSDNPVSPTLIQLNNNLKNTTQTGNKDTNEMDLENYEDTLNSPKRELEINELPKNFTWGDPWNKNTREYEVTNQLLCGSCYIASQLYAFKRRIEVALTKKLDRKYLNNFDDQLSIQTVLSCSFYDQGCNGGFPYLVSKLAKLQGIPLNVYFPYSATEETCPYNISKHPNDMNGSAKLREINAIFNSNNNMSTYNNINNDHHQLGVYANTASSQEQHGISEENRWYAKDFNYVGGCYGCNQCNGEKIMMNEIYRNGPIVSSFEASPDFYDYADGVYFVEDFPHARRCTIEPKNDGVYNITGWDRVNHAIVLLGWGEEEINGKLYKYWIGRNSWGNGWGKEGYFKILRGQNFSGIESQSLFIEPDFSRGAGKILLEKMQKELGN

| Structure (SMILES) | % Inhibition @ 10 uM [%] |
| --- | --- |
| COc1ccc(C2(O)CN3C=CC=CC3=[N+]2c2ccccc2)cc1 (stereo not drawn) | 18.1 |
| O=C(O)CSc1nc2ccccc2s1 | -0.274 |
| CC(C)CNS(=O)(=O)c1ccc(CCC(=O)NC2CCCCCC2)cc1 | -1.02 |
| Cc1ccc(/C=C2/SC(=O)N(CC(=O)Nc3ccccc3)C2=O)s1 | -4.13 |
| COc1ccccc1NC(=O)C1=C(C)N=C2CC(C)(C)CC(O)=C2C1c1cccc(C)c1 (stereo not drawn) | 2.51 |
| CCOC(=O)c1c(S(=O)(=O)N(Cc2ccco2)C2CCCC2)c(C)n(C)c1C | -6.64 |
| COc1ccc(CC(=O)N(Cc2ccccc2)C(C)C)cc1 | 6.53 |
| Cc1nc(O)c(C(c2ccccc2)c2c(O)nc(C)nc2O)c(O)n1 | -5.05 |
| Cc1ccc(NC(=O)c2ccccc2OC(F)F)cc1F | -2.85 |
| O=C(O)c1cccc(NCC(=O)c2ccccc2)c1 | 0.324 |
| CCc1ccc(C(=O)c2cnc3cc4c(cc3c2N2CCCC2)OCCO4)cc1 | 3.43 |
| Clc1ccc(Cl)c(OCCCCN2CCOCC2)c1 | -0.711 |
| O=C(c1cc(Cl)ccc1Cl)N1CCN(c2ccc([N+](=O)[O-])cc2)CC1 | -4.32 |
| CC(C)(C)OC(=O)N1CCC(c2c(C(=O)NCc3cccnc3)cnn2-c2ccccc2Cl)CC1 | -2.53 |
| Cc1ccc(NC(=O)c2cc(F)c(Cl)nc2Cl)cc1 | 3.96 |
| Cc1c(C(=O)Nc2ccc(C(C)(C)C)cc2)cnn1-c1ccccc1 | -3.69 |
| Cn1ncc(Cl)c1C(=O)Nc1sc2c(c1C(N)=O)CCC2 | 1.82 |
| O=C1N=C(N2CCN(Cc3ccccc3)CC2)S/C1=C\c1ccccc1 | -2.82 |
| O=C(NCCCNC1=NS(=O)(=O)c2ccccc21)c1ccc(F)cc1 | 16.8 |
| CCSC1=NSC2=NC(=O)/C(=C\c3cccc4ccccc34)C(=N)N12 | 1.85 |
| CCCO/C(O)=C1\C(C)=NC2=C(C(=O)CCC2)C1c1cccc(Cl)c1 (stereo not drawn) | -0.631 |
| CCOC(=O)c1c(/N=C/c2c(CO)cnc(C)c2O)sc2c1CCCC2 | 10.5 |
| CC1=C(C)CC(C(=O)Nc2cc(Cl)cc(Cl)c2)C(C(=O)O)C1 (stereo not drawn) | 4.64 |
| CC(C(=O)N1CCC(C(N)=O)CC1)n1sc2ccccc2c1=O (stereo not drawn) | -9.13 |
| CCCc1nn(-c2ccc(F)cc2)c(O)c1C=N | 6.91 |
| Cc1ccc(CNCCCSc2nnnn2C)s1 | 2.25 |

| Structure (SMILES) | % Inhibition @ 10 uM [%] |
| --- | --- |
| O=C1c2ccccc2C(=O)c2c1cccc2-n1cnnn1 | 1.84 |
| COCC(C)NCc1ccc(C)cc1C (stereo not drawn) | 1.13 |
| Clc1ccc(-c2nnc(-c3ccccc3)o2)cc1 | -3.74 |
| Cc1ccc(-c2ccc(=O)n(CCC(=O)NCCN(CC(C)C)CC(C)C)n2)cc1 | -5.43 |
| Cc1ccc(C(=O)N/C(=C\c2ccco2)C(=O)NC2CCCC2)cc1C | -2.78 |
| COc1ccc(Nc2ccc(C(=O)NC(C)c3ccccc3)cc2[N+](=O)[O-])cc1 (stereo not drawn) | -6.52 |
| CC(NC(=O)c1ccccc1)C1COc2ccccc2O1 (stereo not drawn) | 5.03 |
| N#CC1=C(N)Oc2cc(N)ccc2C1c1cccc(Cl)c1 (stereo not drawn) | 3.05 |
| CCOc1ccc(C(=O)Nc2nnc(S(=O)(=O)N(C)Cc3ccc(Cl)cc3)s2)cc1 | -7.28 |
| Cc1cc(C)n2nc(NCc3ccc(C(C)C)cc3)nc2n1 | 2.42 |
| CCOc1ccc(-c2cc(C(=O)O)c3ccccc3n2)c(OCC)c1 | -8.36 |
| N#Cc1nc(-c2ccccc2)oc1N1CCOCC1 | 0.317 |
| N#CC1=C(N)Oc2[nH]nc(-c3ccccn3)c2C1c1c(F)cccc1Cl (stereo not drawn) | 4 |
| Cc1ccccc1Cc1c(C)nc2nc(SCC(=O)NC3CCCC3)nn2c1C | -3.78 |
| CC1CCCN(CCCNC(=O)c2ccc(CS(=O)(=O)c3c(Cl)cccc3Cl)o2)C1 (stereo not drawn) | -2.85 |
| CCOC(=O)c1[nH]c(C)c(C(=O)N(CC)C2CCCCC2)c1C | 0.0579 |
| N#Cc1cc2c(nc1SCC(N)=O)CCCCC2 | 10 |
| CCN(CC)C(=O)C1CCCN(Cc2cc(OC)c3c(c2)OCO3)C1 (stereo not drawn) | -4.95 |
| COc1ccc(C(=O)NCc2ccc(C(=O)O)o2)cc1 | -2.19 |
| NS(=O)(=O)c1ccc(CNC(=O)c2ccccc2Cl)cc1 | -3.03 |
| c1ccc(CNc2nn3nnnc3c3ccccc23)cc1 | -2.12 |
| C1=C(c2ccccc2)Nc2ncnn2C1c1cccc2ccccc12 (stereo not drawn) | -3.95 |
| CCOC(=O)N1CCN(c2nc3ccc(Cl)cc3nc2-n2nc(C)cc2C)CC1 | 0.958 |
| O=C1OC(c2ccccc2)=N/C1=C\c1ccc(OCc2ccccc2)cc1 | -3.98 |
| Cn1c(/C(C#N)=C/c2c[nH]c3ccccc23)nc2ccccc21 | 2.26 |
